This passage reports binding signal results from publication PMC6212790.

The other results are listed elsewhere or left out. At the low end of the ranking the order means little.

The experiment has as its target T1, GST-Rok (full length) (UniProt O34857).
T1 sequence: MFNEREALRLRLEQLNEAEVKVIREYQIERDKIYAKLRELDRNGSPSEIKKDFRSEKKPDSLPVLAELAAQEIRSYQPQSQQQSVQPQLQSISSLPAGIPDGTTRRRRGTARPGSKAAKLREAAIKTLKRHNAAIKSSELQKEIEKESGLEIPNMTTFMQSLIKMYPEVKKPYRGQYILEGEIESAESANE
As to the kind of experiment: protein binding microarray.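 Also: rank score from −0.5 (least bound) to 0.5 (best bound).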 The following applies: Rok is a gene silencer of Bacillus subtilis; high values mean tight binding; most listed sequences are background and not binding sites; double strand, one strand shown.
GAATATGC gave a binding signal of 0.0354 E-score.

Take CTTGTTAA: the binding signal is 0.146 E-score.

AAACTATC displayed a binding signal of 0.412 E-score.

For the sequence TCCACGCA, the binding signal is -0.194 E-score.

For the sequence CAACTTAC, the binding signal turned out to be 0.216 E-score.

For AGTCTTTA, the binding signal was -0.0752 E-score.

On to CCGAGAAC, for which the binding signal is -0.0718 E-score.

ACGCGCAC: the binding signal is -0.184 E-score.

Consider GAAGGCGA, for which the binding signal was -0.283 E-score.

For ATTATAAC, the binding signal was determined as 0.283 E-score.

AGATACCA yielded a binding signal of 0.155 E-score.

In the case of ACGGATTG, the binding signal is -0.0128 E-score.

The sequence ATAAAGTA gave a binding signal of 0.283 E-score.

On to CCCTGATA, for which the binding signal was -0.0284 E-score.

For GTGCAATA, the binding signal was found to be 0.0353 E-score.

GCCACGGA: the binding signal was -0.302 E-score.

The sequence GTGAGCTA had a binding signal of 0.0438 E-score.

On to CCAACAAG, for which the binding signal was -0.116 E-score.

Turning to CCGCTCCA, the binding signal was -0.115 E-score.

As to CGCCGCCG, the binding signal is -0.272 E-score.

Regarding AGTCCCCA, the binding signal was -0.16 E-score.

In the case of CTTGATAA, the binding signal was determined as 0.15 E-score.

Take AGGGAAAG: the binding signal is -0.163 E-score.

As to GGCGGGAC, the binding signal was -0.221 E-score.

In the case of AGCGGTGA, the binding signal was -0.0797 E-score.

For the sequence TATTCGAA, the binding signal turned out to be 0.26 E-score.

Sequence CGGTTATA registered a binding signal of 0.184 E-score.

On to AACAATAA, for which the binding signal is 0.143 E-score.

AACGCATC: the binding signal is -0.0467 E-score.

The sequence AAGCGGAT returned a binding signal of 0.00558 E-score.

Consider AGGGCTAA, for which the binding signal is -0.0634 E-score.

CAAGTGAA showed a binding signal of 0.00305 E-score.

ACTTGATA had a binding signal of 0.0801 E-score.

The sequence AATTAGGC registered a binding signal of 0.203 E-score.

Turning to CGTTTGGA, the binding signal was found to be 0.0792 E-score.

For ACCGGGCT, the binding signal is -0.276 E-score.

Take CCAGTTTA: the binding signal was -0.0136 E-score.

For the sequence CACTCTCC, the binding signal was -0.167 E-score.

With TGTGCTAA, the binding signal amounted to 0.137 E-score.

Take AACCTAAG: the binding signal is -0.0483 E-score.

For the sequence CGGCGGGC, the binding signal was -0.339 E-score.

On to GACCTGGA, for which the binding signal was found to be 0.025 E-score.

CGCGAAGA gave a binding signal of 0.114 E-score.

For CTGCGCAA, the binding signal was -0.0519 E-score.

Sequence CACTAACC yielded a binding signal of 0.0432 E-score.

Regarding ACCGAAAT, the binding signal amounted to 0.182 E-score.

In the case of GTGTTAAA, the binding signal is -0.00319 E-score.

Regarding AAAGCGGG, the binding signal was -0.149 E-score.

For the sequence ATTGATGG, the binding signal is -0.113 E-score.

With ACTCGTGC, the binding signal was -0.0621 E-score.

Turning to AGATGTAT, the binding signal came to 0.213 E-score.

Regarding CAGTGACA, the binding signal stood at 0.0193 E-score.

Regarding GCCACCAC, the binding signal was -0.0789 E-score.

Take CCGATCCC: the binding signal was -0.366 E-score.

As for CAGCTTGC, the binding signal was -0.235 E-score.

Regarding AGAGTTGC, the binding signal was -0.101 E-score.

Consider GGGCCGTA, for which the binding signal was -0.273 E-score.

As for CAGATCGG, the binding signal was -0.0795 E-score.

In the case of CCGCGAGG, the binding signal was -0.233 E-score.

With AATATAGG, the binding signal came out at 0.23 E-score.

ATTCTCGA displayed a binding signal of 0.219 E-score.

With ACTTGAAC, the binding signal was -0.00106 E-score.

As to TGTGCAAA, the binding signal was -0.00495 E-score.

CTCGTGCA: the binding signal is -0.225 E-score.

For the sequence ACTTTGAA, the binding signal was -0.138 E-score.

ATGCGTAA gave a binding signal of 0.0991 E-score.

Regarding ACTTCTTG, the binding signal came to 0.0559 E-score.

For the sequence TAATAGCA, the binding signal is 0.257 E-score.

As for GCGCGCAA, the binding signal was -0.00946 E-score.

For CACGGTTA, the binding signal amounted to 0.0748 E-score.

For GATCGCAC, the binding signal is -0.158 E-score.

In the case of GGACTTAA, the binding signal was -0.0264 E-score.

For ATTGAGCA, the binding signal is 0.0511 E-score.

The sequence TATGTGGA yielded a binding signal of 0.273 E-score.

Turning to AGCTCCAG, the binding signal was -0.0852 E-score.

Take CATGTTCG: the binding signal was -0.0614 E-score.

The sequence AATTGTAG returned a binding signal of 0.28 E-score.

For CGTCATCC, the binding signal is -0.186 E-score.

The sequence CGTCTAGA gave a binding signal of 0.132 E-score.

GATATGAC: the binding signal was 0.103 E-score.

GATAGATC: the binding signal worked out at 0.273 E-score.

AAGACGTA: the binding signal was determined as 0.132 E-score.

CTCATCTC: the binding signal is -0.186 E-score.

AGTGAAAA returned a binding signal of 0.131 E-score.

For CTTTCAGA, the binding signal is -0.196 E-score.

Regarding ACAGGGGT, the binding signal was -0.0286 E-score.

As for GTGAACCA, the binding signal was -0.186 E-score.

Turning to CTAGAGCA, the binding signal is -0.0577 E-score.

In the case of GAAGTCCC, the binding signal is -0.124 E-score.

AACAAAAT came in with a binding signal of 0.205 E-score.

AGTTGTTC: the binding signal was 0.0176 E-score.

As for CGTCGCAG, the binding signal is -0.155 E-score.

With GACGAGGA, the binding signal is -0.222 E-score.

As for GGAGGCCA, the binding signal is -0.244 E-score.

Regarding ATCCGCCG, the binding signal was -0.169 E-score.

Regarding ACTGATGA, the binding signal was -0.123 E-score.

As to AGGATCTG, the binding signal is -0.167 E-score.

Consider CTCCGGGC, for which the binding signal is -0.332 E-score.

In the case of GCTGTCAA, the binding signal is -0.167 E-score.

Take GCCTTTAC: the binding signal is -0.196 E-score.

The sequence ACTTATAG displayed a binding signal of 0.306 E-score.

In turn, GAATGGTA returned a binding signal of 0.317 E-score.

Regarding ATGAGGGG, the binding signal is -0.315 E-score.

Turning to AGCGCAGG, the binding signal is -0.254 E-score.

On to GTGCCAAC, for which the binding signal was -0.125 E-score.

For the sequence GGGGGGTA, the binding signal was -0.186 E-score.

Consider GAAACGTA, for which the binding signal was determined as 0.149 E-score.

Turning to GCTGGCCC, the binding signal is -0.295 E-score.

The sequence AAGAAATA gave a binding signal of 0.0744 E-score.
